Measured values published in paper PMC4336329 (PLoS ONE, 2015).
Screen size: about 310,000 compounds; about 2,200 (0.71%) showed an effect of 50% or more. The effect is printed as a negative number. This is one part of the list.

Each compound was assayed against human ether-à-go-go-related gene (hERG) potassium channel (human, UniProt Q12809) (assay: primary screen, population patch clamp on CHO cells stably expressing hERG).
Chain of human ether-à-go-go-related gene (hERG) potassium channel (Q12809 whole entry, looked up): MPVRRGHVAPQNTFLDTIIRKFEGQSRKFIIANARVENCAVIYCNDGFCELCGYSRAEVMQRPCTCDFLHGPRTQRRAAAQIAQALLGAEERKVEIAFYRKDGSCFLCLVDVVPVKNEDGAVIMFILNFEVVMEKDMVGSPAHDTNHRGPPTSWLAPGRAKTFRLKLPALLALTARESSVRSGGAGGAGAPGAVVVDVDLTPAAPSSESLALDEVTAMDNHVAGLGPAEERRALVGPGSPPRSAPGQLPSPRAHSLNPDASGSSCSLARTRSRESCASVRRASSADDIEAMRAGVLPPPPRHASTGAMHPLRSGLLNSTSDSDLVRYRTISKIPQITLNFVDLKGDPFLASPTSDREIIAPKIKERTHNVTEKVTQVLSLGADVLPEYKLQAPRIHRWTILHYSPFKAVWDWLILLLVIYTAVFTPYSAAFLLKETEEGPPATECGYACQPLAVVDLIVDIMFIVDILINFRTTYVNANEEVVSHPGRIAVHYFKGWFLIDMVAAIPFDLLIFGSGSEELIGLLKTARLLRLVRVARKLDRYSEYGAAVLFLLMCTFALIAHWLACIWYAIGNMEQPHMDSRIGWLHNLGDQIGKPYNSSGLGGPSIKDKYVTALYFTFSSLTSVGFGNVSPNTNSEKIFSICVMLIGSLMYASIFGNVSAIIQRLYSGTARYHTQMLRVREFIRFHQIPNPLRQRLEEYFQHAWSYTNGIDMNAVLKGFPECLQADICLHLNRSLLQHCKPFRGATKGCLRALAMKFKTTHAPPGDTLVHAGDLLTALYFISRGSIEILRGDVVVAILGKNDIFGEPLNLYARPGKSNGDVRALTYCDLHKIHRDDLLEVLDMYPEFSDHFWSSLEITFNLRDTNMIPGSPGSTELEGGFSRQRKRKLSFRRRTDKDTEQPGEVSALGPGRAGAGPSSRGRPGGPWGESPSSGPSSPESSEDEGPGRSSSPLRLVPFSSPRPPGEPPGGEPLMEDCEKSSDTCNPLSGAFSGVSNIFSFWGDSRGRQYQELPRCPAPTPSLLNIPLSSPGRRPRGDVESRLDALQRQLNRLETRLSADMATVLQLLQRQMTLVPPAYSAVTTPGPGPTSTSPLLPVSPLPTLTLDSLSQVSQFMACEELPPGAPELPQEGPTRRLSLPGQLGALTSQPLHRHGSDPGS

| SMILES | hERG current change (%, negative = inhibition) at 1uM [%] |
| --- | --- |
| Cc1ccc(S(=O)(=O)c2c[nH]c3ccc(C)cc3c2=O)cc1 | 14.7 |
| O=C(Nc1ccc(S(=O)(=O)N2CCOCC2)cc1)c1ccc(F)cc1 | 6.1 |
| Cc1cc(C=C(C#N)C#N)c(C)n1-c1ccccc1 | 6.19 |
| CC1Cc2ccccc2N1C(=O)c1ccc2snnc2c1 (stereo not shown) | 0.715 |
| CC(C)n1cnnc1SCC(=O)NC(=O)c1ccccc1 | 4.17 |
| COc1cccc(-c2nc(CS(=O)(=O)CC(=O)NCc3ccccc3OC)c(C)o2)c1 | 14.2 |
| Cn1nc(C(=O)N2CCN(c3ccc([N+](=O)[O-])cc3)CC2)c2c1-c1ccccc1S(=O)(=O)C2 | 1.12 |
| COc1cccc(CNCc2cccnc2)c1OCc1ccccc1.Cl | 29.4 |
| O=C(O)Cc1ccc(NC(=O)Nc2ccc3c(c2)OCO3)cc1 | 13.2 |
| Cc1ccc(S(=O)(=O)CCC(=O)Nc2ccc(F)cc2)cc1 | 10.9 |
| N#CCSc1nnc(-c2ccccc2)c(-c2ccccc2)n1 | 10.8 |
| C=CCOC(=O)C1=C(C)NC(C)=C(C(=O)OCC=C)C1c1ccc(C)o1 | 7.99 |
| CCC(C)NC(=O)C1CN(S(=O)(=O)c2ccccc2)CCN1S(=O)(=O)c1ccccc1 (stereo not shown) | 4.36 |
| CS(=O)(=O)c1ncc(Cl)c(C(=O)Nc2ccc(OC(F)F)cc2)n1 | 17.2 |
| COc1ccc(C(=O)NNC(=O)c2cc(C)nc3ccccc23)cc1 | 9.65 |
| Cc1ccc(F)c(NC=C2C(=O)OC(C)(C)OC2=O)c1 | -5.32 |
| Cc1cc(C)c(C(=O)C(C)OC(=O)c2ccccn2)cc1C (stereo not shown) | 14.6 |
| CN(CC(=O)Nc1cccc(F)c1)C(=O)c1cc(-c2cccs2)nn1-c1ccccc1 | 11.3 |
| CCCCC(=O)Nc1cccn2ncnc12 | 11.9 |
| CCOc1ccccc1C(=O)NC1CC2CCCC(C1)N2C1CC1 (stereo not shown) | 9.64 |
| CC(C)(C)c1cc(C=C(C#N)C#N)cc(C(C)(C)C)c1O | 15.1 |
| COc1cc(CN2CC(=O)N(c3ccc(C)cc3)C2=S)cc(OC)c1OC | 7.3 |
| O=C(O)/C(=C\c1ccccc1)c1ccccc1 | 6.19 |
| CC(C)OC(=O)/C(=C\c1ccccc1)NC(=O)c1ccccc1 | 9.47 |
| CCCCOC(=O)Nc1ccc(S(=O)(=O)Nc2cc(C)nc(C)n2)cc1 | 12.6 |
